# Data taken from PMC4336329 (PLoS ONE, 2015).
# Screen size: about 310,000 compounds; about 14,000 (4.5%) showed an effect of 50% or more. Effects have a minus sign here. This is one part of the list.
# Biological target: human ether-à-go-go-related gene (hERG) potassium channel (human, UniProt Q12809)
# Assay: primary screen, population patch clamp on CHO cells stably expressing hERG
# 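Further: peak tail current of the secondary pulse compared with the same well before compound.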
# human ether-à-go-go-related gene (hERG) potassium channel, sequence (Q12809 whole entry, looked up): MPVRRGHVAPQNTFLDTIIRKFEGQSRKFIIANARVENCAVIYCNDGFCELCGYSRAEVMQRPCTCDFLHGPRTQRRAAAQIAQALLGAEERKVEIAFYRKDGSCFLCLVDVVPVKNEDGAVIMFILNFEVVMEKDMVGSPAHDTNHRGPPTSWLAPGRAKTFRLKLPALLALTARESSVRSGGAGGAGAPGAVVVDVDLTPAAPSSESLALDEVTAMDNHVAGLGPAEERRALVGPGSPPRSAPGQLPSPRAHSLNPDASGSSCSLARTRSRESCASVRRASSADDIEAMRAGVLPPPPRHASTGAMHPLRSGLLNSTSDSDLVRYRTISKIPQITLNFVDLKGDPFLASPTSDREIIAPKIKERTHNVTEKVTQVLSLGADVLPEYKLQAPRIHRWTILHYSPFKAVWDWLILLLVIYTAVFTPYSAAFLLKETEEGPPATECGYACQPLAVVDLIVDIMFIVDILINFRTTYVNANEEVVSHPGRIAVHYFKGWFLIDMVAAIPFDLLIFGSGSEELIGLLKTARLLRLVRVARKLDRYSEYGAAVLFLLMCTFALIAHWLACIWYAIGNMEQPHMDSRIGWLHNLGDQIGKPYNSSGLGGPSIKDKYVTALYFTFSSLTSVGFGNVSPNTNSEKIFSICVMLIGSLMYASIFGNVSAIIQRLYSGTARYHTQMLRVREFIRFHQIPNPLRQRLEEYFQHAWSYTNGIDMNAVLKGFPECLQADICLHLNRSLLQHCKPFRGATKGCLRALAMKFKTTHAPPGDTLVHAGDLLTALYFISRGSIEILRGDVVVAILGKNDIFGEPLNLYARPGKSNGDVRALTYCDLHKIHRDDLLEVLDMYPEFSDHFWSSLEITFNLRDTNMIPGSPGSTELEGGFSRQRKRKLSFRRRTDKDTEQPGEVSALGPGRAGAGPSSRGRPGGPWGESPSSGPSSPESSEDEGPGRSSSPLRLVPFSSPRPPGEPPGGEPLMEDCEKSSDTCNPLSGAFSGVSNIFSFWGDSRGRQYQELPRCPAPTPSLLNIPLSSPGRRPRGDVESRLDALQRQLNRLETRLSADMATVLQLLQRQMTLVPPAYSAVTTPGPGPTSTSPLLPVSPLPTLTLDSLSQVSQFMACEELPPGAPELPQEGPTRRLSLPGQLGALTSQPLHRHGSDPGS
row,SMILES,"hERG current change (%, negative = inhibition) at 10uM"
1,CCC(C)NC(=O)C1c2ccccc2C(=O)N1Cc1ccccc1 (centres unmarked),20.5%
2,CCCOC1CCCN(Cc2cn(C)nc2-c2ccccc2F)C1 (centres unmarked),12.8%
3,CC1CCC2(CC1)NC(=O)N(CC(=O)NC1(C#N)CCCCC1)C2=O (centres unmarked),16.7%
4,CCCc1noc2c1C(c1ccoc1)C(C#N)=C(N)N2 (centres unmarked),3.87%
5,Cc1ccc(NC2CC(=O)N(c3ccc(C)cc3)C2=O)cc1 (centres unmarked),-0.727%
6,CC1(c2nnc(Cc3ccccc3)o2)CC(c2cccc(F)c2)=NO1 (centres unmarked),-3.35%
7,COc1cccc(N/C(SCc2cccc([N+](=O)[O-])c2)=C(/C#N)C(=O)NCc2cccs2)c1,0.656%
8,COc1ccc(S(=O)(=O)c2nnn(-c3cccc(OC)c3)c2N)cc1,-30.1%
9,O=C(NC(C(=O)N/N=C/c1ccncc1)c1n[nH]c(=O)c2ccccc12)c1ccccc1 (centres unmarked),13.1%
10,Cc1cc(=O)cc(C)n1-c1ccc(Cl)c(Cl)c1,13.5%
11,O=C(COC(=O)CCOc1ccccc1)Nc1ncc(Cl)cc1Cl,-2.65%
12,S=c1[nH]nc(CSCCOc2ccccc2)o1,8.24%
13,O=C(COc1ccccc1)Nc1ccc(CSc2ccccc2)cc1,14.6%
14,O=C1NC(=O)C(CCc2ccncc2)(Cc2ccc([N+](=O)[O-])cc2)C(=O)N1,10.8%
15,Nc1nc(-c2ccccc2)nn1S(=O)(=O)c1ccccc1,16%
16,COc1ccc(N2CC(O)(c3ccc(C)cc3)[N+]3=C2CCCC3)cc1.[Br-] (centres unmarked),-38.9%
17,Cc1ccc(CN2CCN(CC3CC4C=CC3C4)CC2)cc1 (centres unmarked),-46.8%
18,Cc1ccc(S(=O)(=O)n2cnc3cc([N+](=O)[O-])ccc32)c(C)c1,-6.34%
19,O=C1N=C(N2CCCC2)S/C1=C\C=C\c1ccccc1,-32.4%
20,Cc1cc(C)cc(N2CN=c3s/c(=C\c4ccco4)c(=O)n3C2)c1,3.07%
21,COc1ccc(OCC(=O)NCc2n[nH]c(=O)c3ccccc23)cc1,-21.7%
22,CC(=O)NNc1nc(-c2ccccc2)c2cc(Br)ccc2n1,5.01%

row,SMILES,"hERG current change (%, negative = inhibition) at 10uM"
1,O=C(COC(=O)c1cncc(Br)c1)NCc1ccco1,8.22%
2,O=C(NCc1cc([N+](=O)[O-])ccc1O)c1cccc(NS(=O)(=O)c2ccccc2)c1,18.3%
3,CC(=O)NC(CCS(C)(=O)=O)C(=O)Nc1ccc(Oc2ccccc2)cc1 (centres unmarked),-4.68%
4,Cc1ccc(OCCNC(=O)c2ccccc2F)cc1,-3.2%
5,COc1cccc(CC(=O)Nc2ncc(C)s2)c1,7.43%
6,Cc1cccc(-c2ncc(CN3CCN(CC(C)C)C(CCO)C3)cn2)c1 (centres unmarked),-47.9%
7,Cc1ccccc1CN1C[C@@H]2C[C@@H](c3cn(C)nc3-c3ccccc3)N3CCC[C@@]23C1=O,3.15%
8,CCC(=O)Nc1ccc2c(c1)nc(CCN1CCN(C)CC1)n2C,29.3%
9,Cc1cccc(N2CCN(S(=O)(=O)c3c(C)[nH]c(C)c3C(=O)N3CCCC3)CC2)c1C,-0.48%
10,N#CC(C#N)=C1C=CC=CN1/C(=C\c1ccco1)C(=O)c1ccc(-c2ccccc2)cc1,3.14%
11,NC(=O)C1CCN(c2ccc3c(c2)S(=O)(=O)c2ccccc2C3=O)CC1,4.28%
12,Cc1nc(C(=O)Nc2ccc(Cl)cc2)nn1-c1ccc([N+](=O)[O-])cc1,-58.6%
13,COc1ccccc1N1CCN(/N=C/c2ccc(Cl)c([N+](=O)[O-])c2)CC1,10.6%
14,CCCCn1c(=O)c(C(=O)NC(C)c2ccccc2)c(O)c2ccccc21 (centres unmarked),24.3%
15,CC(C)NC(=O)[C@@H]1C[C@@]1(C)[C@@H](NC(=O)OCc1ccccc1)c1ccccc1,14.7%
16,NC(=O)c1cc(-c2ccccc2)sc1NC(=O)CN1CCCCC1,0.904%
17,Cc1cccn2c(=O)c3cc(S(=O)(=O)c4ccccc4)c(=N)n(Cc4ccc(F)cc4)c3nc12,24.7%
18,Cc1cccc(N2C(=O)C3C4C=CC(C4)C3C2=O)c1 (centres unmarked),-8.32%
19,Cc1cccc(NC(=O)CSc2nnc(CNC(=O)c3ccco3)n2C)c1,19.3%
20,COc1ccccc1OCc1ccc(C(=O)NC(C)c2ccccc2)o1 (centres unmarked),-11.9%
21,CC(=O)N1c2ccc(S(=O)(=O)N3CCC(C(=O)Nc4cccc(C)c4C)CC3)cc2CC1C (centres unmarked),-29.7%
22,Cc1ccc(C)c(N2CCN(S(=O)(=O)c3ccc4c(c3)oc(=O)n4C)CC2)c1,5.15%
